Target: His-GST-TVMV-hRIPK1(1-324) (Homo sapiens (Human), UniProt Q13546)
Experiment: RIPK1 HTRF Binding Assay
[1] = read-out: RIPK1 HTRF (IC50), HTRF binding, probe displacement, 1 h at rt

| SMILES | IC50 [1] | IC50 |
| --- | --- | --- |
| CNC(=O)c1n[nH]c2cc(N3CCCC(C(=O)NCc4ccccc4Oc4ccccc4)C3)ccc12 (racemic) [Example 8, N-methyl-6-(3-{ [(2-phenoxyphenyl)methyl]carbamoyl}piperidin-1-yl)-1H-indazole-3-carboxamide] | 515 nM |  |
| CNC(=O)c1n[nH]c2cc(N3CCCC(C(=O)NCCCOC4CCCCC4)C3)ccc12 (racemic) [Example 9, 6-(3-{[3-(cyclohexyloxy)propyl]carbamoyl}piperidin-1-yl)-N-methyl-1H-indazole-3-carboxamide] |  | 1000 nM |
| CNC(=O)c1n[nH]c2cc(N3CCCC(C(=O)NCc4ccccc4OCC4CC4)C3)ccc12 (racemic) [Example 12, 6-[3-({[2-(cyclopropylmethoxy)phenyl]methyl}carbamoyl)piperidin-1-yl]-N-methyl-1H-indazole-3-carboxamide] | 110 nM |  |
| CNC(=O)c1n[nH]c2cc(N3CCCC(C(=O)NCC(O)COc4ccccc4)C3)ccc12 (single isomer, unassigned) [Example 6, 6-{3-[(2-hydroxy-3-phenoxypropyl)carbamoyl]piperidin-1-yl}-N-methyl-1H-indazole-3-carboxamide] |  | 52 nM |
| CNC(=O)c1n[nH]c2cc(N3CCCC(C(=O)NCC(O)COc4ccccc4)C3)ccc12 (single isomer, unassigned) [Example 7, 6-{3-[(2-hydroxy-3-phenoxypropyl)carbamoyl]piperidin-1-yl}-N-methyl-1H-indazole-3-carboxamide] |  | 170 nM |
| CNC(=O)c1n[nH]c2cc(N3CCCC(C(=O)NC4CCCC(c5ccccc5)C4)C3)ccc12 (single isomer, unassigned) [Example 15, N-methyl-6-{3-[(3-phenylcyclohexyl)carbamoyl]piperidin-1-yl}-1H-indazole-3-carboxamide] |  | 440 nM |
| CNC(=O)c1n[nH]c2cc(N3CCCC(C(=O)NC4CCCC(c5ccccc5)C4)C3)ccc12 (single isomer, unassigned) [Example 16, N-methyl-6-{3-[(3-phenylcyclohexyl)carbamoyl]piperidin-1-yl}-1H-indazole-3-carboxamide] |  | 1600 nM |
| CNC(=O)c1n[nH]c2cc(N3CCN(C)C(C(=O)NCc4ccccc4OC)C3)ccc12 (centres unmarked) [Example 2, 6-(3-{[(2-methoxyphenyl)methyl]carbamoyl}-4-methylpiperazin-1-yl)-N-methyl-1H-indazole-3-carboxamide] | > 15000 nM |  |
| CNC(=O)c1n[nH]c2cc(N3CCOC(C(=O)NCCC(O)c4ccc(F)c(F)c4)C3)ccc12 (centres unmarked) [Example 3, 6-(2-{[3-(3,4-difluorophenyl)-3-hydroxypropyl]carbamoyl}morpholin-4-yl)-N-methyl-1H-indazole-3-carboxamide] | 1100 nM |  |
| CNC(=O)c1n[nH]c2cc(N3CCNC(C(=O)NCCC(C)c4ccccc4)C3)ccc12 (centres unmarked) [Example 4, N-methyl-6-{3-[(3-phenylbutyl)carbamoyl]piperazin-1-yl}-1H-indazole-3-carboxamide] | 1100 nM |  |
| CNC(=O)c1n[nH]c2cc(C3CCCN(C(=O)NCCC(C)c4ccccc4)C3)ccc12 (centres unmarked) [Example 5, N-methyl-6-{1-[(3-phenylbutyl)carbamoyl]piperidin-3-yl}-1H-indazole-3-carboxamide] | 25 nM |  |
| CNC(=O)c1n[nH]c2cc(N3CCCC(C(=O)NCCC(O)c4ccccc4)C3)ccc12 (centres unmarked) [Example 10, 6-{3-[(3-hydroxy-3-phenylpropyl)carbamoyl]piperidin-1-yl}-N-methyl-1H-indazole-3-carboxamide] | 410 nM |  |
| CNC(=O)c1n[nH]c2cc(N3CCCC(C(=O)Nc4cnn(Cc5ccccc5)c4)C3)ccc12 (centres unmarked) [Example 11, 6-{3-[(1-benzyl-1H-pyrazol-4-yl)carbamoyl]piperidin-1-yl}-N-methyl-1H-indazole-3-carboxamide] | 540 nM |  |
| CNC(=O)c1n[nH]c2cc(N3CCCC(C(=O)NCCCOc4ccc(F)cc4)C3)ccc12 (centres unmarked) [Example 13, 6-(3-{[3-(4-fluorophenoxy)propyl]carbamoyl}piperidin-1-yl)-N-methyl-1H-indazole-3-carboxamide] | 1300 nM |  |
| CNC(=O)c1n[nH]c2cc(N3CCCC(C(=O)NCCC(O)c4ccc(F)c(F)c4)C3)ccc12 (centres unmarked) [Example 14, 6-(3-{[3-(3,4-difluorophenyl)-3-hydroxypropyl]carbamoyl}piperidin-1-yl)-N-methyl-1H-indazole-3-carboxamide] | 310 nM |  |
| CNC(=O)c1n[nH]c2cc(N3CCN(C)C(C(=O)NCCC(O)c4ccccc4)C3)ccc12 (centres unmarked) [Example 18, 6 6-{3-[(3-hydroxy-3-phenylpropyl)carbamoyl]-4-methylpiperazin-1-yl}-N-methyl-1H-indazole-3-carboxamide] | > 15000 nM |  |
| CNC(=O)c1n[nH]c2cc(N3CCN(C)C(C(=O)NCCC(C)c4ccc(F)cc4)C3)ccc12 (centres unmarked) [Example 19, 6-(3-{[3-(4-fluorophenyl)butyl]carbamoyl}-4-methylpiperazin-1-yl)-N-methyl-1H-indazole-3-carboxamide] | 790 nM |  |
| CNC(=O)c1n[nH]c2cc(N3CCN(C)C(C(=O)NCCC(C)c4ccccc4)C3)ccc12 (centres unmarked) [Example 20, N-methyl-6-{4-methyl-3-[(3-phenylbutyl)carbamoyl]piperazin-1-yl}-1H-indazole-3-carboxamide] | 2200 nM |  |
| CNC(=O)c1n[nH]c2cc(N3CCOC(C(=O)NCCC(C)c4ccccc4)C3)ccc12 (centres unmarked) [Example 22, N-methyl-6-{2-[(3-phenylbutyl)carbamoyl]morpholin-4-yl}-1H-indazole-3-carboxamide] | 100 nM |  |
| CNC(=O)c1n[nH]c2cc(N3CCOC(C(=O)NCC4CC4c4cccc(F)c4)C3)ccc12 (centres unmarked) [Example 23] | 280 nM |  |
| CNC(=O)c1n[nH]c2cc(N3CCOC(C(=O)NCCC(C)c4ccc(F)cc4)C3)ccc12 (centres unmarked) [Example 24, 6-(2-{[3-(4-fluorophenyl)butyl]carbamoyl}morpholin-4-yl)-N-methyl-1H-indazole-3-carboxamide] | 51 nM |  |
| CNC(=O)c1n[nH]c2cc(N3CCOC(C(=O)NCCC(O)c4ccc(Cl)cc4)C3)ccc12 (centres unmarked) [Example 25, 6-(2-{[3-(4-chlorophenyl)-3-hydroxypropyl]carbamoyl}morpholin-4-yl)-N-methyl-1H-indazole-3-carboxamide] | 1600 nM |  |
| CNC(=O)c1n[nH]c2cc(N3CCOC(C(=O)NC4CCCC(c5ccccc5)C4)C3)ccc12 (centres unmarked) [Example 26, N-methyl-6-{2-[(3-phenylcyclohexyl)carbamoyl]morpholin-4-yl}-1H-indazole-3-carboxamide] | 290 nM |  |

Source: patent publication US12084426B2, “Indazole carboxamides as kinase inhibitors” (BRISTOL-MYERS SQUIBB COMPANY, priority 2018, dated 2024)
